Measured values as given in article doi:10.1101/2021.04.26.441477 (bioRxiv, 2021).

Target: the molecule itself
Test: cross-linking

B1: Nucleolin in Nucleolin immunoprecipitates (Nucleolin IP) (natural protein)
chain: not shown
stoichiometry N: 2 and 4 and 6

Several values for one entry are separate records, joined by “and”; a condition that tells them apart may be missing. Identical values can stand only once.
